Measured values published in the supplement of paper PMC11417369.
Some of the results follow.

Test system: PfHDP1 homeodomain (GST-tagged)
Test: gcPBM binding intensity (ln(normalized median fluorescence intensity)); higher = stronger DNA binding
Summary of the method: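 An Agilent 4 × 180k array carrying primer-extended double-stranded 36-bp intergenic genomic probes and negative controls received GST-tagged P. falciparum DNA-binding domains expressed in E. coli, about 25 μg on average, for 1 h. The binding buffer contained 1× PBS, 1% milk, 0.2 mg/ml BSA, 0.5% salmon testes DNA and 0.03% Triton X-100. Binding intensity is the top Masliner-normalised natural-log median intensity across replicate spots of either probe orientation, read after Alexa488 anti-GST antibody staining and a 488 nm scan.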

| Sequence | gcPBM binding intensity (ln) |
| --- | --- |
| ATTATGTACAAAATGGTGCAATATTATACATATATA [GTGCAC_site9468] | 10.4 |
| ATCATTTGCTCACGCACACACACATAAAAAGAAAAA [CACACA_site4349] | 9.55 |
| TATATTAATATGAAAAGTACACATTCTATATATATA [XGTACX_site929] | 7.34 |
| ACATAATTTGATAATACACACAAATAATCTAAAATT [CACACA_site129] | 6.38 |
| AAAATAATCACATATTGTACAAAAAAATTTATTAAA [XGTACX_site3239] | 6.64 |
| TTTTGAAGTAACAAATAAATAAATAAATATATAAAA [GTGCAC_negctrl_site517] | 6.53 |
| ATTCATTCATATGTTACACACACACCGACACATAAA [CACACA_site5749] | 7.31 |
| TATTAAACTGGACACACACACACACCCATATATAAA [CACACA_site4579] | 6.93 |
| GACTTTTCAATTTTTCGTACGTATAAATTGTATACA [XGTACX_site1488] | 6.47 |
| TTTTGTTACTTTTATGTGCACTTATAAAACGAACTA [GTGCAC_site9551] | 9.96 |
| CTAATATATATCAATTGTACATATTGAATAAGAACA [XGTACX_site4541] | 6.6 |
| TTTTTATTGTTGTACTTATATTATTTTATTATTAAA [GTGCAC_negctrl_site200] | 6.77 |
| AAGAAAAAATGATGAATAGAGATCAAATCTATATAT [TGCATGCA_negctrl_site29] | 6.23 |
| AAATTATGTGCCAATACACACACACCGATATATATA [CACACA_site8050] | 6.83 |
| TAGTTTTTATATAGCACACATATTGTGATTATGTAT [CACACA_site1196] | 6.83 |
| TTTATATATAAATATATATATATATATATATATATA [TGCATGCA_negctrl_site121] | 9.28 |
| ATAATATAGAAACACACACACATATATATATACATT [CACACA_site555] | 6.74 |
| TACTACCACGGACATGCATGCACATTATTACTCTAA [TGCATGCA_site313] | 8.28 |
| AATTCATTTTACCCATGTACACAATTATATTTTATA [XGTACX_site4127] | 6.79 |

| Sequence | gcPBM binding intensity (ln) |
| --- | --- |
| TTCTTAGATTGTACAGTACACACCTTTAGAATGTTA [CACACA_site212] | 6.73 |
| TTTATTATCTTATTCACACACATATATAAATATGTA [CACACA_site7369] | 6.77 |
| AAAAAAAAAACATACACACACACAAATATTTATATA [CACACA_site437] | 6.83 |
| AACATAATAAAAAAACGTACATAATTTTATATACAT [XGTACX_site6602] | 6.37 |
| ATATATCCAATATATATATATATATATATATATATA [CACACA_negctrl_site160] | 9.45 |
| ACATTCATAAAAAAAAGTACATTTTTTATAAAAGAA [XGTACX_site6197] | 6.47 |
| TTGTTAAATATTTATAAAATGAATTTAAAATGTACT [CACACA_negctrl_site665] | 6.13 |
| TATATTTAGAATACAATCTTAAAGTTGAAATAAAAT [CACACA_negctrl_site1292] | 6.03 |
| ATAGTTTTACACATTTGTACATAATTTACAACAAAA [XGTACX_site25] | 7.04 |
| TTTCCGTATAATTTTGCACACGAATATAAATTTGAT [CACACA_site137] | 10.3 |
| ATAGTATCTGGTAGCTGTACGAGTCGTATAGTGCAG [XGTACX_site2542] | 6.7 |
| AAAAAATATTATATATGTACATAATATTTTTTTTTT [XGTACX_site5909] | 6.16 |
| TTTAATCAAATTAAAAGTACAGAATTGTTCATGTAG [XGTACX_site1229] | 5.92 |
| ATATATATATATTCCACACACACACTAATAAAAAAA [CACACA_site9214] | 8.59 |
| TGTTTTTGTGATCATATGAAAAAATTACCTACAAGG [CACACA_negctrl_site279] | 6.42 |
| AGTAGATATAAAAGGAGTACACATATATATATAAAT [XGTACX_site4375] | 6.87 |
| CATATACAGAAACACACACACACATAAATAAATATA [CACACA_site1343] | 6.84 |
| TTTAATTAAATATGTATATATATTCATGTATGTATA [GTGCAC_negctrl_site14] | 6.53 |
| AATATATAAGTGTTGTGTACTAAAGTATTTTCCTAT [XGTACX_site1622] | 6.55 |

| Sequence | gcPBM binding intensity (ln) |
| --- | --- |
| AAAAAAAAAAGACACACACACATATTTATTTATATA [CACACA_site6484] | 6.47 |
| TTTGAAATAAATAATGCACACTCTACATATATACGT [CACACA_site2244] | 10.6 |
| CCTATCCATACATATACACACATATCTATTTATATA [CACACA_site1669] | 7.14 |
| CAACATTTATATTTTACACACATCATTTAAGCGCTT [CACACA_site992] | 6.76 |
| TTATTATATAAAATAAATAACAAAAAAAATAAAATA [GTGCAC_negctrl_site548] | 6.43 |
| ATTGTTTTATATAGAACACACATAAAAATCTATATG [CACACA_site6681] | 6.42 |
| AAATAAAATACAAGTTGTACTATAAGCTTTTTATAT [XGTACX_site8021] | 6.43 |
| AATATGGTTATATATATATATATATATATATATATT [GTGCAC_negctrl_site566] | 7.61 |
| TATATATATATATATACATGCATATTTTTTATTTTT [TGCATGCA_site464] | 9.46 |
| TGTCTTATATATATTACACACTATATGAAAAAATAT [CACACA_site1487] | 6.9 |
| TATATTTATCTGATAACACACATAAATTAGACATTT [CACACA_site6887] | 6.39 |
| TTTTTTATATATATTTGTACATATTGCATGTTCCCT [XGTACX_site7143] | 7.27 |
| TAAAGTATTACAACCACACACACACCGATATATTAT [CACACA_site9382] | 6.78 |
| AAAAGAAATTTGGGCACATGCGAATTTATAATTTAT [TGCATGCA_site960] | 6.58 |
| TAATTTAATAATTAGACACACATGTCTAAAATAAAA [CACACA_site2527] | 6.01 |
| TATATATTCTTTTAATGTACATATTGTATTATATCC [XGTACX_site4501] | 6.56 |
| ATATATTTAAACAAAAGTACAAATCATAAATTCAAG [XGTACX_site3633] | 6.07 |
| ATTTTTTAAAAAGTAACACACACTCTTATATATAAT [CACACA_site9206] | 6.64 |
